In PubChem BioAssay AID1159614 (National Center for Advancing Translational Sciences (NCATS), 2016):
In all, about 45,000 compounds went through this assay and about 65 (0.1%) were called active. Calls follow the shape of the dose curve; as a rule, active = well fitted activation curve with a large enough effect; inconclusive = small, poorly fitted or top-dose-only effect; inactive = no such curve, though single readings can be large or run the other way. The list shows a part of the results.

Target: Galactocerebrosidase (Homo sapiens) (UniProt P54803)
Sequence of UniProt P54803 (P54803 whole entry, looked up): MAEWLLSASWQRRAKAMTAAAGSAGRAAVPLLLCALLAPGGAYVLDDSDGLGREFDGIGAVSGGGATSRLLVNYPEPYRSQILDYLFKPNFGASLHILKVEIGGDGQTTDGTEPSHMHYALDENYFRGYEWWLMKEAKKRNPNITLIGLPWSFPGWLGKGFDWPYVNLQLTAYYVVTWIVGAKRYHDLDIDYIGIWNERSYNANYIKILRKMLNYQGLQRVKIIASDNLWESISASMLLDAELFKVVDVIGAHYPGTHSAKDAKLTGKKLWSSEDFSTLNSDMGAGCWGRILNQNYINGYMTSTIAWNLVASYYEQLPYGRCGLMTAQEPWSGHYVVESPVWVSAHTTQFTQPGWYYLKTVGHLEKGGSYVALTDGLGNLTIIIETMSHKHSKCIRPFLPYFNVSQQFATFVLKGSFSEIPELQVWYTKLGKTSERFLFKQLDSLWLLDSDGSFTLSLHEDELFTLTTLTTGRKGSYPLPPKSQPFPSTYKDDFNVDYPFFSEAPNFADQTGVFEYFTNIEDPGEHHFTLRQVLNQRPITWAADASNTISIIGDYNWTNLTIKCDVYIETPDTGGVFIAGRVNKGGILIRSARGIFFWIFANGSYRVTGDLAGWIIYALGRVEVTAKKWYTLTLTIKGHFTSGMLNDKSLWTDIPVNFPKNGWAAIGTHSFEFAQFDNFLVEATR
Assay: A Novel Cell-Based Assay to Identify Small Molecules for B -Galactocerebrosidase; also: 0% is about no effect; nearly all actives have a fitted effect of over 65% in size
Conditions: 145M-Twi-hGALC-G270D cells (Twitcher mouse brain line with human GALC G270D), HMU-beta-Gal fluorescence, 48 h; series mostly up to 57.5 µM; activation: at the top concentration
In short: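 Fluorogenic HMU-b-Gal hydrolysis (0.1 mM final, pH 5.2 citrate-phosphate with 1 mg/mL sodium taurocholate; carbonate stop buffer) measures mutant GALC activity after compound treatment of live 145M-Twi Twitcher brain cells stably carrying human GALC-G270D, with wild-type GALC line alongside; activation sought.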

activation, inactive:
CCOC(=O)c1ccc(NC(=O)c2c(NCc3ccc(OC)c(OC)c3OC)sc3c2CCC(C)C3)cc1 (stereo not given) -9.52%, CCN(CC)C(=O)c1sc2c(c1C)c(=O)n(Cc1ccccc1)c(=O)n2Cc1c(C)cc(C)cc1C -7.37%, O=C(NCC(c1ccco1)S(=O)(=O)c1cccs1)c1c(F)cccc1F (stereo not given) -22.6%, CCOc1ccccc1CNC(=O)CCCn1c(=O)c2cccn2c2ccc(F)cc21 2.3%, CCOC(=O)c1cc(S(=O)(=O)N(C)c2ccccc2)[nH]n1 4.91%, Cc1ccc(CNC(=O)c2cc(NS(=O)(=O)c3ccc(C)cc3)ccn2)cc1 -10.9%, CCOc1ccc(S(=O)(=O)Nc2ccc3c(c2)CCCN3S(=O)(=O)c2ccc(C)cc2)cc1 14.8%, Cc1ccc2nc(N)[nH]c(=O)c2c1Sc1ccncc1 -6.63%, Cc1ccc(NS(=O)(=O)c2ccc3[nH]c4c(c3c2)CCCCCC4)cc1C -49%, COc1ccc(CCNCc2c(C(=O)O)c(C)n(Cc3cccc(C)c3)c2C)cc1OC -12.3%, CCCOc1ccc(C(=O)Nc2ccc(NC(=O)c3ccc(Br)cc3)cc2)cc1 -9.59%, Cc1cccc(Nc2nnc(-c3ccc(C)c(S(=O)(=O)N4CCOCC4)c3)c3ccccc23)c1 -15.4%, Cn1c(Oc2cccc(Cl)c2)nc2c1c(=O)n(Cc1ccccc1Cl)c(=O)n2C -8.17%, Cn1c(C(=O)NCc2ccccc2F)cc2cc(S(=O)(=O)N3CCCCC3)ccc21 -6.16%, COc1ccc(NC(=O)CN(C)S(=O)(=O)c2ccc3nc(C)sc3c2)cc1Cl 0.512%, COC(=O)c1sc2cccc(F)c2c1S(=O)(=O)NCc1ccccc1Cl -8.72%, COc1ccc(CNC(=O)C(=O)Nc2ccccc2OC)cc1 -6.84%, COC(=O)c1sc(S(=O)(=O)N2CCN(c3ccc(OC)cc3)CC2)c(C(=O)OC)c1C -11.7%, CCOC(=O)[C@@](C)(N)Cc1ccc(O)c(O)c1 2.86%, Cc1cc(O)c(C(c2ccccc2)N2CCN(c3ccccc3F)CC2)c(=O)n1Cc1ccco1 (stereo not given) -21.2%, CCC(=O)N1CCc2cc(Br)cc(S(=O)(=O)CCC(=O)NCc3ccc(C)cc3)c21 -24.1%, CC(=O)Nc1c(C)nn(-c2ccccc2)c1N1CCC(C(=O)Nc2ccc(Cl)cc2C)CC1 -19.7%, COc1cc(NC(=O)CN2C(=O)C(c3ccc(C)cc3)=NC23CCCCCC3)cc(OC)c1 -14.5%, O=C(c1ccccc1)c1ccc2n1CCC2C(=O)O (stereo not given) -5.36%, Cc1ccc(-c2nc3ccccc3[nH]2)cc1NC(=O)COc1ccc(Cl)cc1Cl -21.9%, COc1ccc(OC)c(NC(=O)CSc2nccn2-c2cc(C)cc(C)c2)c1 -35.4%, Cc1ccc(Cn2c3ccccc3c3cnn(CC(=O)N4CCCCCC4)c(=O)c32)cc1 -9.22%, COc1ccc(-n2nc3c(c2NC(=O)C(=O)NCc2ccccc2)CSC3)cc1 -4.22%, Cc1ccc(CN2C(=O)CC(c3ccc(Cl)cc3)c3c(C)nn(-c4nc(C)cc(C)n4)c32)cc1 (stereo not given) -15.4%, COc1c(N2CCNC(C)C2)c(F)cc2c(=O)c(C(=O)O)cn(C3CC3)c12 (stereo not given) -16.7%, COc1ccc(N2CCN(C(=O)CCc3nnc4n(C)c(=O)c5sccc5n34)CC2)cc1 -7.67%, CC1(C)N=C(c2ccc(F)cc2)C(=O)N1CC(=O)Nc1ccccc1Cl -10.5%, COc1ccc(-n2c(=O)c3ccc(C(=O)NCc4ccc(C)cc4)cc3n(Cc3ccc(F)cc3Cl)c2=O)cc1 -16%, CCCC(=O)Nc1nc2c(s1)CC(C(C)(C)C)CC2 (stereo not given) 9.06%, CCOc1ccc(-n2c(=O)c3c(C)c(C)sc3n(Cc3c(F)cccc3Cl)c2=O)cc1 2.88%, COC(=O)c1cc2oc(C)cc2n1CC(=O)Nc1ccc(OC)c(OC)c1 -16%, COC(=O)c1ccc(NC(=O)CSc2nccn2Cc2ccc(Cl)cc2)cc1 -4.17%, COc1cccc(CNC(=O)CCCn2c(=O)c3cccn3c3ccc(F)cc32)c1OC -6.01%, Cn1c(=O)cc(SCC(=O)NCCc2ccc(Cl)cc2)c2cc(Cl)ccc21 -3.5%, Cc1cc(C)cc(NC(=O)Cn2c(=O)n(CCC(C)C)c(=O)c3cccnc32)c1 -11.6%, CCc1ccc2oc(C(=O)N(Cc3cccc(Cl)c3)Cc3ccco3)c(C)c2c1 -11.5%, COc1ccc(N2C(=O)CS(=O)(=O)C23C(=O)N(Cc2ccccc2)c2ccccc23)cc1 (stereo not given) -20.3%, COc1cccc(-c2nc(S(=O)(=O)c3ccc(C)cc3)c(NCc3ccccc3)o2)c1 -8.7%, Clc1cccc(N2CCN(c3nc4ccccc4c4nc(-c5ccccc5)nn34)CC2)c1 -19%, CCN1CCN(c2cc(C)c3cc(NC(=O)c4cc(OC)c(OC)c(OC)c4)ccc3n2)CC1 6.82%, COc1ccc(-c2cc(C(C)=O)c(C)n2CCC(=O)Nc2cccc(C)c2C)cc1 -6.58%, O=C(CSc1nc2ccccc2c2nc(-c3ccccc3)nn12)Nc1ccc(F)cc1 5.94%, O=C(Cn1c2ncccc2c(=O)n1-c1ccccc1)Nc1cccc(C(F)(F)F)c1 -11.9%, CCC(=O)C1=C(c2cccc([N+](=O)[O-])c2)N(C(=O)CC)n2c(nnc2C2CCCCC2)S1 -1.89%, COc1cc(NC(=O)CN(C)S(=O)(=O)c2ccc3c(c2)CCCC(=O)N3)cc(OC)c1OC -28.7%, CCc1ccc2c(c1)c(=O)c(S(=O)(=O)c1ccccc1)cn2CC(=O)Nc1cc(C)ccc1C -7.41%, Cc1ccccc1-c1nc(CS(=O)(=O)CC(=O)Nc2c(C)cccc2C)c(C)o1 18.8%, Cc1ccc(CCNC(=O)Cn2ncc3c(=O)oc4ccccc4c32)cc1 0.825%, COc1ccc(-c2nc3ccccc3o2)cc1NC(=O)COc1c(C)cc(Cl)cc1Cl -17%, OCc1ccccc1O -26.2%, CCOc1ccccc1N(C)C(=O)c1cc(S(=O)(=O)NCc2ccc(C)cc2)ccc1F -3.47%, CN1CCN(C(=O)c2cnn(-c3ccccc3)c2C2CCN(C(=O)OC(C)(C)C)CC2)CC1 0.826%, CCc1cccc(NC(=O)Cn2c(=O)n(Cc3ccccc3)c(=O)c3c(C)c(C(=O)N(C)C)sc32)c1 -9.07%, CCc1nnc(SC(CC)C(=O)NCCOC)c2cc3occc3n12 (stereo not given) -13.8%, CCc1nn2c(=O)cc(COC(=O)c3cccc(NC(=O)COc4ccccc4F)c3)nc2s1 -7.64%, COc1ccc(Cl)cc1NC(=O)c1cc(=O)c2cc(C)cc(C)c2o1 -17.3%, Cc1ccc(C)c(NC(=O)Cn2cc(S(=O)(=O)N3CCCC3)c(S(=O)(=O)N3CCCC3)c2)c1 -16.8%, Cc1cccc(NC(=O)CSc2nc(C)cc(C)c2C(=O)Nc2ccc(Cl)cc2)c1 -8.15%, CCOC(=O)C1CCN(c2csc3ccc(C)cc3c2=O)CC1 -9.93%, COC(=O)c1cc2sc(C)cc2n1Cc1nc(-c2cccc(Br)c2)oc1C -11.1%, CC(C)(C)OC(=O)N1CCC(c2c(C(=O)N3CCN(c4ccccc4F)CC3)cnn2C(C)(C)C)CC1 -18.2%, Cc1cccc(-c2nc3c4ccccc4n(CC(=O)Nc4cccc(F)c4)c(=O)n3n2)c1 -12.2%, COc1ccc(NC(=O)c2cc(C(C)=O)n3ccccc23)cc1Cl -21.3%, CCOC(=O)NNc1ccc(N(CC)CC(C)O)nn1 (stereo not given) -7.57%, COc1ccc2c(CNCc3cccs3)c(C(=O)O)n(Cc3cccc(F)c3)c2c1 5.93%, Cc1cc(/C=C(\C#N)C(=O)Nc2ccccc2)c(C)n1-c1ccc(F)cc1 -6.2%, COC(=O)c1ccccc1NC(=O)c1sc2nc(C)cc(C)c2c1NC(=O)c1ccccc1Cl -17.3%, O=C(Cc1ccccc1)Nc1sc2c(c1C(=O)Nc1ccccc1Cl)CCCC2 -17.8%, COc1cc(NC(=O)c2nc(-c3ccc(Cl)cc3)n3c2CCCCC3)cc(OC)c1OC -17.4%, COc1ccc(CNC(=O)Cn2ccc3cc(S(=O)(=O)N4CCCC4)ccc32)c(OC)c1 -14.7%, CCn1c(=O)n(-c2ccc3c(c2)OCO3)c2nc(-c3cc(OC)ccc3OC)nc(C(N)=O)c21 -5.48%, Cc1cccc(C(=O)Nc2ccc3nc(SCC(=O)N4CCc5ccccc54)sc3c2)c1 -7.81%, COc1ccc(OC)c(-c2nnc3n(CCc4ccccc4)c(=O)c4ccccc4n23)c1 -11.6%, COc1ccc(CNC(=O)c2cc(C3CC3)nc3c2c(C)nn3-c2cccc(Cl)c2C)cc1 -15.7%, COc1ccc(NC(=O)c2ncoc2-c2ccco2)cc1Cl 7%, CC(CNC(=O)c1ccc2nc(CCc3ccccc3)oc2c1)c1ccccc1 (stereo not given) -16.7%, CCOC(=O)c1cccc(NC(=O)C2CCN(S(=O)(=O)c3c(C)noc3/C=C/c3ccc(C)cc3)CC2)c1 -15.4%, CCOc1ccc2oc(=O)cc(CN3CCN(C(=O)c4cccc(Cl)c4)CC3)c2c1 -0.901%, COc1ccc(CNC(=O)c2ccc(NC(=O)N3CCSc4ncccc43)cc2)c(OC)c1 -11.9%, Cc1ccccc1C(=O)Nc1cccc(C(=O)OCc2cc(=O)n3c(C)csc3n2)c1 -3.33%, Cc1ccc(C)c(Nc2nn3c(=O)c4ccc(C(=O)N(C)Cc5ccccc5)cc4nc3s2)c1 -11.1%, CCOC(=O)c1sc2ncn(CC(=O)Nc3cc(C)cc(C)c3)c(=O)c2c1C -19%, COC(=O)c1ccccc1NC(=O)Cn1c(=O)cc(-c2ccccc2)c2c(C)nn(C)c21 -12.4%, CCN(CC)C(=O)Cn1c(=O)n(CCCCCC(=O)Nc2ccccc2)c(=O)c2sccc21 -22.1%, NC(=O)C(=O)N/N=C/c1ccc([N+](=O)[O-])o1 -13.3%, O=C(NCc1ccccc1F)c1cc2ccccn2n1 0.098%, Cc1ccc2oc(=O)c3cc(C(=O)NCc4ccc(Cl)cc4)sc3c2c1 -17.6%, Cc1ccc(NC(=O)C2CCCN2S(=O)(=O)c2cccc3nsnc23)c(Br)c1 (stereo not given) -16.7%, Cc1ccc(CN2CCc3nc(N4CCN(c5ccccc5F)CC4)ncc3C2)s1 -6.37%, COc1ccc(-c2csc3nc(-c4ccc(F)cc4)oc(=O)c23)cc1OC -17%
